Test results: PubChem BioAssay AID1745853 (National Center for Advancing Translational Sciences (NCATS), 2022)
This is one part of the list. Further columns of the screen follow, without active or inactive calls.

Key:
Assay in all cases: Primary Screen for Target Class Profiling of Small Molecule Inhibitors of Methyltransferases
[1] = target: Glycine N-methyltransferase (Homo sapiens) (UniProt Q14749); details: purified enzyme, MTase-Glo SAH luminescence; measured here: GNMT inhibition; at 40 µM; stronger effect = lower value
Method in brief: (§1)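 Each enzyme was assayed with SAM and its substrate. SAH formation detected by MTase-Glo luminescence; single-point 40 uM screen[…].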

[2] = target: Guanidinoacetate N-methyltransferase (Homo sapiens) (UniProt Q14353); details: purified enzyme, MTase-Glo SAH luminescence; measured here: GAMT inhibition; at 40 µM; stronger effect = lower value
Method in brief: as §1

[3] = target: Histamine N-methyltransferase (Homo sapiens) (UniProt P50135); details: purified enzyme, MTase-Glo SAH luminescence; measured here: HNMT inhibition; at 40 µM; stronger effect = lower value
Method in brief: as §1

[4] = target: Nicotinamide N-methyltransferase (Homo sapiens) (UniProt P40261); details: purified enzyme, MTase-Glo SAH luminescence; measured here: NNMT inhibition; at 40 µM; stronger effect = lower value
Method in brief: as §1

[5] = target: Phenylethanolamine N-methyltransferase (Homo sapiens) (UniProt P11086); details: purified enzyme, MTase-Glo SAH luminescence; measured here: PNMT inhibition; at 40 µM; stronger effect = lower value
Method in brief: as §1
% is set by controls: 0 for no effect and ±100 for the full control effect.

SMILES | activity change, negative = inhibition [1] [%] | activity change, negative = inhibition [2] [%] | activity change, negative = inhibition [3] [%] | activity change, negative = inhibition [4] [%] | activity change, negative = inhibition [5] [%]
O=C(NC[C@H](O)CN1CCc2ccccc2C1)c1ccnc(NC2CCC2)c1 | 2.04 | 7.19 | -6.42 | -10.8 | -0.166
CC(C)CCN1C(=O)c2c(-n3cccc3)c3cc(F)ccc3n2CC1(C)C(=O)NC1CCCCCC1 (configuration not stated) | -8.88 | 3.37 | -4.16 | -12.7 | 2.25
C=C1CC[C@@H]2[C@](C)(CO)[C@H](O[C@@H]3O[C@H](CO)[C@@H](O)[C@H](O)[C@H]3O)CC[C@@]2(C)[C@@H]1C/C=C1/C(=O)OC[C@H]1O | -9.71 | -7.91 | -2.9 | -18.6 | -18.1
Cc1cc(C)c(S(=O)(=O)N(Cc2ccc(-c3cccc(S(C)(=O)=O)c3)cc2)Cc2ccc(C(F)(F)F)o2)c(C)c1 | 8.24 | -20.4 | 7.87 | -26.9 | -6.95
Cc1cc(NC(=O)N2CCn3cccc3C2C)ccc1Br (configuration not stated) | -1.38 | 0 | -3.21 | -6.8 | -0.522
CC(=O)N1CC2(CCN(C(=O)NCc3ccccc3)CC2)CC1C(=O)O (configuration not stated) | -2.77 | -1.46 | -0.991 | -3.33 | 0.418
O=C(c1ccncc1)N1CCC(Cc2noc(-c3ccccc3)n2)C1 (configuration not stated) | -5.34 | -5.7 | -0.195 | -8.26 | -10.6
COc1cc(N2CCN(C)CC2)ccc1Nc1nccc(-c2cn(C)c3cnccc23)n1 | -10.2 | -0.47 | -20.9 | -27.4 | -14.9
C[C@@H](NCC1CCCC1)c1onc(-c2ccc(Cl)cc2)c1C(=O)O | -6.16 | -9.39 | -2.82 | -7.74 | -11.5
CNC(=O)[C@H]1O[C@@H](n2cnc3c(NCc4ccc(N)cc4)ncnc32)[C@H](O)[C@@H]1O | -8.66 | 4 | -4.3 | -3.21 | 2.15
COC(=O)C1=CO[C@@H](O[C@@H]2O[C@H](CO)[C@@H](O)[C@H](O)[C@H]2O)[C@H]2[C@@H]1C=C[C@@]21C=C([C@H](C)O)C(=O)O1 | 1.46 | 2.43 | 8.27 | -9.78 | 4.85
COc1ccc2c(c1)c(NC(C)=O)c1n2CC(C)(C(=O)NCCC(C)C)N(Cc2ccco2)C1=O (configuration not stated) | 6.25 | 1.92 | 10.4 | 14.6 | 3.2
CN(CC(=O)Nc1ccc(F)c(Cl)c1)S(=O)(=O)c1ccc2[nH]c3c(c2c1)CCCC3 | -5.2 | 3.76 | -1.71 | -4.24 | -0.088
CCOc1ccc(CCN2C(=O)c3cc(-c4ccccc4)nn3CC2(C)C(=O)NCc2ccccc2)cc1 (configuration not stated) | 3.52 | -0.517 | 4.51 | 2.35 | -2.79
CC(CCC1(O)OC2CC3C4CC=C5CC(O[C@@H]6O[C@H](CO)[C@@H](O[C@@H]7O[C@@H](C)[C@H](O)[C@@H](O)[C@H]7O)[C@H](O)[C@H]6O[C@@H]6O[C@@H](C)[C@H](O)[C@@H](O)[C@H]6O)CCC5(C)C4CCC3(C)C2C1C)CO[C@@H]1O[C@H](CO)[C@@H](O)[C@H](O)[C@H]1O (some centres not stated) | 2.27 | 1.85 | 6.76 | -8.8 | -4.32
Cc1cnc(C2CCOCC2)n1C1CCN(S(=O)(=O)c2ccc3c(c2)OCCO3)CC1 | 1.35 | 2.07 | 10.4 | 0.006 | 4.74
O=C(Cn1ccc2cc(S(=O)(=O)N3CCCCC3)ccc21)NCc1cccc(Cl)c1 | 5.45 | 0.529 | 6.43 | -5.62 | 0.464
COc1ccc(-c2nnn3c2nc(NCc2cccc(OC)c2)c2ccccc23)cc1 | 0.276 | 4.46 | 3.02 | 2.3 | -3.16
Cc1ccc(N2C(=O)c3cc4sccc4n3CC2(C)C(=O)NC2CCCCC2)cc1C (configuration not stated) | -1.35 | 4.84 | 1.24 | 7.23 | -2.28

SMILES | activity change, negative = inhibition [1] [%] | activity change, negative = inhibition [2] [%] | activity change, negative = inhibition [3] [%] | activity change, negative = inhibition [4] [%] | activity change, negative = inhibition [5] [%]
CC(C)NC(=O)c1ccc2c(=O)n(C(C)C)c3nn(CC(=O)NC4CCCCC4)c(=O)n3c2c1 | 2.99 | 3.05 | 2.39 | -0.647 | -1.02
Cc1cc(C(=O)N2CCN(c3cccc(Cl)c3)CC2)n(-c2ccccc2)n1 | -0.477 | -3.52 | 2.59 | -25.2 | -10.4
CC(C)S(=O)(=O)N1CCC2(CC1)CC1C(=O)NCCN1C2 (configuration not stated) | -7.01 | -7.75 | -2.9 | -9.93 | -17.3
Cc1ccc2n1CCN(C(=O)Nc1cccc(Cl)c1)C2C(C)C (configuration not stated) | 10.2 | 1.6 | -0.177 | 0.94 | 3.62
C=C1CC[C@H]2[C@@](C)(CCC(O)[C@@]2(C)CO)[C@@H]1/C=C/C(=C\C(=O)O)C(=O)O (some centres not stated) | 0.91 | 1.92 | 9.47 | -10.3 | -1.69
Cc1ccc(CNS(=O)(=O)c2cc3c(cc2Cl)n(C)c(=O)n3C)cc1 | 6.12 | 0 | -1.66 | 0.815 | 1.77
COc1ccc(C(=O)Cn2nc3n(C(C)C)c(=O)c4ccc(C(=O)NC(C)C)cc4n3c2=O)cc1 | 0.042 | 0 | 4.9 | -1.95 | 3.73
CCOC(=O)c1cc2n(n1)CC(C)(C(=O)NC1CCCCCC1)N(c1ccc(C)c(F)c1)C2=O (configuration not stated) | -0.493 | 0.301 | 2.13 | 5.22 | -0.544
CCC(C)NC(=O)c1ccc2c(=O)n(C(C)C)c3nn(Cc4c(F)cccc4Cl)c(=O)n3c2c1 (configuration not stated) | 7.05 | 0 | 5.09 | 2.48 | 3.35
COc1cc2c(cc1O)CC[C@@H]1[C@@H]2CC[C@]2(C)[C@@H](O)CC[C@@H]12 | -5.64 | 8.04 | 2.82 | -6.03 | -5.95
Cc1ccccc1NC(=O)CSc1nnc2[nH]c(=O)c(C(C)(C)C)nn12 | 12.2 | 0.573 | 6.96 | -1.54 | 3.6
CN(Cc1ccccc1)Cc1nc(C2CCOC2)no1 (configuration not stated) | -2.52 | -1.11 | -1.15 | -0.37 | -3.18
O=C(Nc1ccc(Oc2ccccc2)cc1)O[C@@H]1CO[C@H]2[C@@H]1OC[C@@H]2n1nnnc1-c1ccc(-c2ccccc2)cc1 | -6.12 | -5.69 | -9.98 | -9.22 | -17.8
CC(C)NC[C@H](O)COc1ccc(CCOCC2CC2)cc1 | -2.45 | -3.93 | 9.43 | -10.3 | 0.839
CCCCOc1ccc(-c2cc3n(n2)CC(C)(C(=O)NC2CCCCC2)N(CCCOC)C3=O)cc1 (configuration not stated) | -1.35 | 0 | 3.7 | 1.92 | 2.52
Cc1ccc(Cl)cc1NC(=O)CSc1nnc2n(CCC(C)C)c(=O)c3ccccc3n12 | -0.551 | 0 | 9.39 | -8.2 | 2.7
CCCCC1CCN(CCCN2C(=O)CCc3ccccc32)CC1 | -0.995 | -6.34 | -12.8 | -15.6 | -18.2
CCOCCCNc1nc2c(S(=O)(=O)c3cc(C)ccc3C)nnn2c2ccccc12 | -5.2 | 4.37 | 4.05 | -4.15 | -2.01
COCCN(C(=O)c1cc(OC)c(OC)c(OC)c1)c1nc(-c2ccccc2)cs1 | 2.81 | 4.56 | 13.8 | -13.2 | 0.376

SMILES | activity change, negative = inhibition [1] [%] | activity change, negative = inhibition [2] [%] | activity change, negative = inhibition [3] [%] | activity change, negative = inhibition [4] [%] | activity change, negative = inhibition [5] [%]
CC(C)c1cc2n(n1)CC(C)(C(=O)NC1CCCCCC1)N(Cc1ccccc1Cl)C2=O (configuration not stated) | -0.534 | 0 | 2.8 | 4.82 | -1.1
COc1ccccc1-c1ccc(CN2CCCC(c3nc4ccc(C)cc4c(=O)[nH]3)C2)cc1 (configuration not stated) | -7.92 | -8.1 | -14 | -20.7 | -4.28
O=C(Cn1ccc2cc(S(=O)(=O)N3CCCCC3)ccc21)NCCc1c[nH]c2ccccc12 | 7.42 | 4.54 | -11.5 | 2.14 | 1.58
Cc1ccc(NC(=O)N2CCn3c(C)ccc3C2C(C)C)cc1F (configuration not stated) | 11 | 0 | 5.67 | -1.63 | 1.84
CCOC(=O)C1CCN(c2nc3c(S(=O)(=O)c4ccc(C(C)C)cc4)nnn3c3ccccc23)CC1 | 2.15 | 0 | 6.71 | 4.26 | -0.811
CC1(C(=O)NC2CCCCCC2)Cn2nc(-c3ccco3)cc2C(=O)N1c1cccc(F)c1 (configuration not stated) | 3.1 | 4.78 | 5.26 | 2.07 | 1.09
CCCCCCCCCCCCCCCCCCOC[C@H](COP(=O)([O-])OCC[N+](C)(C)C)OC | 2.85 | 15.5 | 9.11 | -14 | 2.93
CCN(CC)CCCNC(=O)c1cc2n(n1)CC(C)(C(=O)NC1CCCCCC1)N(C)C2=O (configuration not stated) | 4.32 | 0.088 | 3.34 | 7.71 | 2.84
COC(=O)C1=C(C)NC(C)=C(C(=O)OC)C1c1ccccc1[N+](=O)[O-] | -31.2 | 10.9 | 6.18 | -4.25 | 3.17
COc1cccc(N2C(=O)NC(=NC3CCCC3)C23CCCN(Cc2cccn2C)C3)c1 (configuration not stated) | -15.5 | -11.4 | -8.06 | -25 | -1.98
O=C(Nc1cccc2cccnc12)c1ccc(N2C(=O)[C@@H]3C4C=CC(C4)[C@@H]3C2=O)cc1 | -5.92 | -8.34 | 5.76 | -16.4 | -2.49
NC(=O)c1cccc2[nH]c(-c3ccc(C4CCCN4)cc3F)nc12 (configuration not stated) | -12.9 | – | -69 | – | –
CC1(C)CC[C@]2(C(=O)O[C@@H]3O[C@H](CO)[C@@H](O)[C@H](O)[C@H]3O)CC[C@]3(C)C(=CCC4[C@@]5(C)C[C@H](O)[C@H](O[C@@H]6O[C@H](C(=O)O)[C@@H](O)[C@H](O)[C@H]6O)[C@@](C)(CO)C5CC[C@]43C)C2C1 (some centres not stated) | -3.57 | -10.4 | 7.22 | -22.3 | -0.269
CC(C)CCN1C(=O)c2nc3ccccc3n2CC1(C)C(=O)NC1CCCC(C)C1C (configuration not stated) | 8.38 | 1.85 | 10.3 | 14.3 | 5.25
COCCN1Cc2sccc2N(CC(O)COc2ccc(OC)cc2)CCC1=O (configuration not stated) | -15.5 | -7.37 | -2.76 | -9.13 | -12.3
O=C(NCc1ccc(F)cc1)N1CCCC(Cc2noc(-c3cccnc3)n2)C1 (configuration not stated) | -4.38 | -9.99 | -4.39 | -1.15 | -7.36
CC(C)C1c2cccn2-c2sc3c(c2CN1C(=O)NCc1ccccc1)CCCC3 (configuration not stated) | -5.74 | -4.42 | -3.72 | -13.3 | -6.06
Nc1nccc(-c2c(-c3ccc(F)cc3)ncn2C2CCCCC2)n1 | -1.68 | -1.31 | -0.472 | -24.6 | -5.66
